The other results are listed elsewhere or left out. Sequences were assembled here from the parent chain. Inactive controls read about 0.05.
B1: TEV protease; numbered along this chain (parent)
chain: MGESLFKGPRDYNPISSSICHLTNESDGHTTSLYGIGFGPFIITNKHLFRRNNGTLVVQSLHGVFKVKDTTTLQQHLVDGRDMIIIRMPKDFPPFPQKLKFREPQREERICLVTTNFQTKSMSSMVSDTSCTFPSGDGIFWKHWIQTKDGQCGSPLVSTRDGFIVGIHSASNFTNTNNYFTSVPKNFMELLTNQEAQQWVSGWRLNADSVLWGGHKVFMVKPEEPFQPVKEATQL

Variants of: B1
Assay: raw area under fraction-flipped curve 0-4 h after induction (AUC4h, not background-subtracted), DNA-recorder readout of cleavage of the substrate (dimensionless); higher = more cleavage of the substrate by the protease variant
Details: temperature: 34 °C; time window: 0-4 h after rhamnose induction
Method: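 In vivo DNA recorder in E. coli TOP10(DE3) ΔrhaA at 34 °C. Each TEVp single-site mutant (parent TEVp 0) is paired with a single-site variant of the 7-mer TEVs (canonical ENLYFQ|S). The substrate sits between flexible linkers in a Bxb1-sfGFP-TEVs-SsrA fusion, so cleavage stabilises Bxb1 and speeds flipping of a recombination array, read by NGS. The value is the raw area under the fraction-flipped curve over 0-4 h after rhamnose induction (AUC4h), with ≥20 reads per time point. It is not background-subtracted; inactive controls average about 0.047.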
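Further: Bxb1 expression induced with 0.2% (w/v) L-rhamnose at OD600 near 0.5, cultures sampled hourly, flipped fraction per protease–substrate barcode pair counted by paired-end Illumina sequencing.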

| Variant | area with substrate ENLYDQS | area with substrate ENLYEQS | area with substrate ENLYHQS | area with substrate ENLYKQS | area with substrate ENLYSQS | area with substrate ENLYVQS | area with substrate ENLYWQS | area with substrate ENLYYQS | area with substrate ENLYIQS | area with substrate ENLYMQS | area with substrate ENLYRQS | area with substrate ENLYTQS | area with substrate ENLYNQS | area with substrate ENLYGQS | area with substrate ENLYLQS | area with substrate ENLYPQS | area with substrate ENLYQQS |
| --- | --- | --- | --- | --- | --- | --- | --- | --- | --- | --- | --- | --- | --- | --- | --- | --- | --- |
| Y34G | 0.0677 | 0.03 | 0.0428 | 0.0597 | 0.0549 | 0.0697 | 0.0677 | 0.0583 | – | – | – | – | – | – | – | – | – |
| Q194P | 0.0568 | 0.0685 | – | 0.0419 | 0.0621 | – | – | – | 0.106 | 0.0966 | 0.0653 | 0.0997 | – | – | – | – | – |
| K90L | 0.0617 | 0.0736 | 0.0616 | 0.0592 | – | 0.17 | – | – | – | – | 0.0594 | – | 0.0714 | – | – | – | – |
| N13D | 0.0612 | 0.0706 | 0.0727 | 0.0554 | – | 0.143 | 0.0537 | – | 0.113 | – | 0.0677 | 0.0872 | 0.0643 | 0.0788 | 0.0845 | 0.0783 | – |
| F140E | 0.0648 | 0.0573 | 0.0672 | 0.0624 | 0.0537 | 0.0586 | 0.0602 | 0.0445 | 0.0534 | 0.0616 | 0.0631 | – | 0.0533 | 0.0583 | – | 0.0637 | – |
| Q59Y | 0.0539 | – | 0.0723 | 0.0632 | 0.0465 | 0.107 | – | – | – | – | – | – | 0.0642 | 0.0743 | 0.0745 | – | 0.05 |
| L22T | 0.0564 | 0.0487 | 0.0542 | 0.0578 | 0.0594 | 0.0536 | 0.0535 | 0.0545 | 0.0505 | 0.0571 | 0.0547 | 0.0536 | 0.0513 | 0.0432 | 0.0272 | 0.0552 | 0.0583 |
| R106H | 0.077 | – | 0.0785 | 0.0603 | 0.0755 | 0.11 | 0.119 | 0.0657 | 0.117 | 0.094 | 0.0618 | 0.0658 | 0.0953 | 0.0541 | – | 0.0777 | 0.0717 |
| N53T | 0.088 | 0.0654 | 0.0631 | 0.0273 | 0.0644 | – | 0.0665 | 0.0654 | 0.124 | 0.0608 | 0.0594 | – | 0.0656 | 0.0537 | – | 0.0526 | – |
| F117G | 0.0665 | – | 0.0954 | 0.0623 | – | 0.109 | 0.0667 | 0.076 | 0.109 | 0.0551 | – | 0.0712 | 0.0633 | – | 0.0936 | 0.0825 | 0.0668 |
| K68Q | 0.0929 | 0.0746 | 0.0663 | 0.0595 | – | 0.108 | 0.105 | – | 0.141 | – | 0.0628 | – | 0.0624 | – | – | 0.0707 | 0.072 |
| I86K | 0.0362 | 0.0264 | 0.0391 | – | 0.0363 | – | 0.0418 | – | 0.0393 | 0.0409 | 0.0274 | – | 0.0396 | 0.0361 | – | – | – |
| V165F | 0.0567 | 0.0506 | 0.0644 | – | 0.0525 | 0.0586 | 0.0543 | – | – | 0.052 | 0.0459 | – | 0.0629 | – | – | 0.0541 | – |
| C111N | 0.0846 | 0.0739 | 0.0414 | 0.0625 | – | – | – | – | 0.119 | 0.0798 | – | – | 0.0742 | 0.0372 | – | – | 0.0677 |
| T181A | 0.0534 | 0.063 | 0.0583 | – | 0.0762 | – | – | 0.0738 | 0.0835 | 0.0834 | – | – | – | 0.0745 | – | – | 0.0713 |

Source: the supplement of paper PMC12217912
